The list shows a part of the results. Read counts after selection give these values, which scatter widely.
T1: G3BP2_NTF2_1_Q9UN86_1_139
T1 chain: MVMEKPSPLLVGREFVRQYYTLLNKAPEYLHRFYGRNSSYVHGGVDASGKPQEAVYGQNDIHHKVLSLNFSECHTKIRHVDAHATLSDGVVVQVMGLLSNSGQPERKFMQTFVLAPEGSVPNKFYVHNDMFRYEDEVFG

T2: MSN_FERM_1_P26038_1_322
T2 chain: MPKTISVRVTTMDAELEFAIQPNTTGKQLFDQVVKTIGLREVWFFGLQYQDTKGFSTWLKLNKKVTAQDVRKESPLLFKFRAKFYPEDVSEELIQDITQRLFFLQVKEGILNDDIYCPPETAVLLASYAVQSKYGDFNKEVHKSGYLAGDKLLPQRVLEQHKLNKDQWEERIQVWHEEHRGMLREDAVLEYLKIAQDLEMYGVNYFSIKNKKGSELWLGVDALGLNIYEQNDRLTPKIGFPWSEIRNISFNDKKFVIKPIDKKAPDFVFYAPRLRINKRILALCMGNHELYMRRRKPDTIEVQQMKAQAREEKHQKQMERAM

T3: RDX_FERM_1_P35241_5_295
T3 chain: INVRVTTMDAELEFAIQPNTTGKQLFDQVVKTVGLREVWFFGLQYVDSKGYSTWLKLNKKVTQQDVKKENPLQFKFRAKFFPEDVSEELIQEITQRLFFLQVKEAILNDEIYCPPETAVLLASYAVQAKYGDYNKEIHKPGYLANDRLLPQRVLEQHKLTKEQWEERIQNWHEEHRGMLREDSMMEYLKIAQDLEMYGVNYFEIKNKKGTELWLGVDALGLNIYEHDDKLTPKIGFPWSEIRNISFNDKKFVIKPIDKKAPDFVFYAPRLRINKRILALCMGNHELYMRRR


Target: T1, G3BP2_NTF2_1_Q9UN86_1_139
Test: mean normalised NGS count of phage-displayed peptide after selection on bait (% of reads); baits are purified protein domains named by gene / domain / UniProt id / residues; peptides come from disordered regions of human proteins; higher = stronger enrichment / binding
Settings: replicate selections in which the peptide was seen: 6

Row | Binder | mean normalised NGS count
1 | ISMGYDLGEAEFARIM [ACTN2 783-798 wt] | 0.584
2 | LTFGTEVSADVLMSYP [SLC38A8 274-289 wt] | 10.5
3 | LFFGSNDYLWTHQAQV [NSD1 1797-1812 mut Q96L73.R1811Q] | 1.44
4 | GWASTADPLSNMVLTF [NDUFS4 113-128 wt] | 10.3
5 | DPLAGTVFVDFGFHLL [ABCB4 1087-1102 mut P21439.Q1100H] | 0.482
6 | LLSDYSNFGQFELTTF [MSH2 279-294 mut P43246.D283Y] | 0.74
7 | PFIYGDIPPGMVSEPL [SCN9A 60-75 wt] | 0.127
8 | YGFLTFGTEVSAAVLM [SLC38A8 271-286 mut A6NNN8.D283A] | 0.0771
9 | PFVYGDIPPGMVSEPL [SCN9A 60-75 mut Q15858.I62V] | 0.4
10 | DLLTFGQAQMNFPLGD [BCL11B 44-59 mut Q9H165.C48F] | 49.2
11 | YGFLTFGTEVSADVLM [SLC38A8 271-286 wt] | 2.94
12 | DLLTFGQAQMNFPLGD [BCL11A 44-59 mut Q9H165.C48F] | 49.2
13 | HDVGEFPVLFFGSNDY [NSD1 1789-1804 wt] | 6.87

Target: T2, MSN_FERM_1_P26038_1_322
Test: as above
Settings: replicate selections in which the peptide was seen: 3

Row | Binder | mean normalised NGS count
14 | ISMGYDLGEAEFARIM [ACTN2 783-798 wt] | 0.194

These binders were tested against EZR_FERM_1_P15311_2_295 in the same assay as above. Settings: replicate selections in which the peptide was seen: 4.
Sequence of EZR_FERM_1_P15311_2_295 (chain, as listed by the source): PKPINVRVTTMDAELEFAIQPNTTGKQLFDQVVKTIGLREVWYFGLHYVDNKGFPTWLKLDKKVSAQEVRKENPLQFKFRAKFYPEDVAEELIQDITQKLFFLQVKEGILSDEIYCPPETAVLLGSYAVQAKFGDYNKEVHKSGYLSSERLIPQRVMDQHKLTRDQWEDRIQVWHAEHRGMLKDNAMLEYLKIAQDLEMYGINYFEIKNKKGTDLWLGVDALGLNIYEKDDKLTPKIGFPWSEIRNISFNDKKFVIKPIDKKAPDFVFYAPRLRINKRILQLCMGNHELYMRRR

Row | Binder | mean normalised NGS count
15 | EEIFHMTYDLASAVVT [HCN4 282-297 mut O60741.R297T] | 16

Target: T2, MSN_FERM_1_P26038_1_322
Test: as above
Settings: replicate selections in which the peptide was seen: 6

Row | Binder | mean normalised NGS count
16 | EEIFHMTYDLASAVVT [HCN4 282-297 mut O60741.R297T] | 0.134

Target: T3, RDX_FERM_1_P35241_5_295
Test: as above
Settings: replicate selections in which the peptide was seen: 3

Row | Binder | mean normalised NGS count
17 | EEIFHMTYDLASAVVT [HCN4 282-297 mut O60741.R297T] | 2.2

Target: T1, G3BP2_NTF2_1_Q9UN86_1_139
Test: as above
Settings: replicate selections in which the peptide was seen: 2

Row | Binder | mean normalised NGS count
18 | NPHQDLQAQDRAHRVG [SMARCA4 1179-1194 mut P51532.I1193V] | 0.132
19 | TPTPFSVKDILNLEQQ [NKX2-5 8-23 wt] | 0.016
20 | FVNFGVGDLNAVQGPG [NKX2-5 292-307 mut P52952.S305G] | 0.00807
21 | PMDPVTFIQTLPSDLR [HUWE1 3055-3070 wt] | 0.242
22 | NPHQDLQAQDRAHRVG [SMARCA2 1179-1194 mut P51532.I1193V] | 0.132
23 | DKMRHDVGEFPVLFFG [NSD1 1785-1800 wt] | 0.0147

What follows are binders tested against GABARAPL1_ATG8__Q9H0R8_2_115 in the same assay as above. Settings: replicate selections in which the peptide was seen: 2.

Row | Binder | mean normalised NGS count
24 | ADIHDFEIIIHRVEWA [OCA2 665-680 mut Q04671.L674I] | 0.012
25 | DADSDFEVLMKTAHGH [RYR2 1338-1353 wt] | 0.00876
26 | QTTIQDDPEQFEVIKQ [ARFGEF2 627-642 mut Q9Y6D5.V630I] | 0.00257
27 | EFTFVDETDQQAVPDV [KIAA1109 1863-1878 wt] | 0.0066
28 | QTTVQDDPEQFEVIKQ [ARFGEF2 627-642 wt] | 0.0172
29 | MESGNASGGDDDWTHL [SQSTM1 326-341 mut Q13501.D329G] | 0.00476

These binders were tested against GABARAPL2_ATG8__P60520_2_115 in the same assay as above. Settings: replicate selections in which the peptide was seen: 4.
Sequence of GABARAPL2_ATG8__P60520_2_115 (chain, as listed by the source): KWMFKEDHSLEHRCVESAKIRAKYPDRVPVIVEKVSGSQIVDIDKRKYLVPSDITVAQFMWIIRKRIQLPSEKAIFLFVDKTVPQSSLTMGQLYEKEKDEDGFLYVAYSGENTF

Row | Binder | mean normalised NGS count
30 | ADIHDFEIIIHRVEWA [OCA2 665-680 mut Q04671.L674I] | 0.00841

Each binder was assayed against MAP1LC3B_ATG8__Q9GZQ8_2_119 in the same assay as above. Settings: replicate selections in which the peptide was seen: 3.

Row | Binder | mean normalised NGS count
31 | ADIHDFEIIIHRVEWA [OCA2 665-680 mut Q04671.L674I] | 0.912
32 | DPLAGTVFVDFGFHLL [ABCB4 1087-1102 mut P21439.Q1100H] | 0.0191

Target: T1, G3BP2_NTF2_1_Q9UN86_1_139
Test: as above
Settings: replicate selections in which the peptide was seen: 4

Row | Binder | mean normalised NGS count
33 | LLQFLDTQSPMLTDPR [MED12 570-585 mut Q93074.A578S] | 0.197
34 | FQDVLLQFLDTQSPML [MED12 566-581 mut Q93074.A578S] | 0.0228
35 | AAVSHWQQQSYLDFGI [CTNNB1 20-35 mut P35222.S33F] | 0.125
36 | FGQAQMNFPLGDILIF [BCL11A 48-63 mut Q9H165.C48F] | 0.0241

These binders were tested against GABARAPL1_ATG8__Q9H0R8_2_115 in the same assay as above. Settings: replicate selections in which the peptide was seen: 3.

Row | Binder | mean normalised NGS count
37 | GRARADESTYVLVAHS [IFIH1 821-836 wt] | 0.0409
38 | TTIREERFEVLHGREA [TTN 909-924 mut Q8WZ42.V911I] | 0.0116
39 | HEVSAEEEWSYLEEEE [TTN 10414-10429 mut Q8WZ42.S10425L] | 0.00522
40 | ADGWNQLNYITEELRN [SLC7A9 232-247 mut P82251.Y232C] | 0.00779
41 | EEFQYIGESQGYDIME [MSH2 852-867 wt] | 0.0123
42 | EDDQRQADQDWYMMDE [DHX38 316-331 mut Q92620.R324Q] | 0.0773
43 | AVSKTEDVWVRIEDAP [APC 2650-2665 wt] | 0.00486

Target: T1, G3BP2_NTF2_1_Q9UN86_1_139
Test: as above
Settings: replicate selections in which the peptide was seen: 5

Row | Binder | mean normalised NGS count
44 | VTFESRAQLGGPEAAK [HSPB1 183-198 wt] | 0.0569
45 | LPAFQHLLFGEVNNIP [BRCA1 1223-1238 mut P38398.K1233E] | 0.0559
46 | GWASTAHPLSNMVLTF [NDUFS4 113-128 mut O43181.D119H] | 0.387
47 | HDVEEFPVLFFGSNDY [NSD1 1789-1804 mut Q96L73.G1792E] | 0.0485
48 | SPASPNEFAFGSYVPS [LCA5 544-559 wt] | 2.37
49 | VTFIQTLPSDLARSVL [HUWE1 3059-3074 mut Q7Z6Z7.R3070C] | 0.187
50 | GKQLPFVYGDIPPGMV [SCN9A 56-71 mut Q15858.I62V] | 0.116

The binders below were run against MAP1LC3B_ATG8__Q9GZQ8_2_119 in the same assay as above. Settings: replicate selections in which the peptide was seen: 4.

Row | Binder | mean normalised NGS count
51 | TTIREERFEVLHGREA [TTN 909-924 mut Q8WZ42.V911I] | 0.00929

Target: T1, G3BP2_NTF2_1_Q9UN86_1_139
Test: as above
Settings: replicate selections in which the peptide was seen: 3

Row | Binder | mean normalised NGS count
52 | LLQFLDTQAPMLTDPQ [MED12 570-585 mut Q93074.R585Q] | 0.0877
53 | LTFGTEVSAAVLMSYP [SLC38A8 274-289 mut A6NNN8.D283A] | 0.0127
54 | VTRNDVAPTLMSVPRY [CDH1 782-797 wt] | 0.0702
55 | PFGLDFYSSDTEEPAI [MARVELD2 56-71 mut Q8N4S9.P59L] | 0.0154

These binders were tested against FKBP1A_full-length__P62942_1_108, P62942 in the same assay as above. Settings: replicate selections in which the peptide was seen: 2.
Sequence of FKBP1A_full-length__P62942_1_108, P62942 (P62942 whole entry): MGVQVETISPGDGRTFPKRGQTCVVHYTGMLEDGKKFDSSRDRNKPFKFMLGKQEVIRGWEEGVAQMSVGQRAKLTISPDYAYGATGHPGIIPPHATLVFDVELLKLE

Row | Binder | mean normalised NGS count
56 | GPKPMPPYSSMFILSM [CACNA1A 1213-1228 mut O00555.T1228M] | 0.729
57 | WEMGPPGNWSPRPPAA [SQSTM1 198-213 mut Q13501.R212C] | 0.0581

Same assay, conditions: replicate selections in which the peptide was seen: 6

Row | Binder | mean normalised NGS count
58 | LGPTFTNTGASTLVIG [HNF1A 422-437 wt] | 25.9

Each binder was assayed against MAP1LC3B_ATG8__Q9GZQ8_2_119 in the same assay as above. Settings: replicate selections in which the peptide was seen: 6.

Row | Binder | mean normalised NGS count
59 | DADSDFEVLMKTAHGH [RYR2 1338-1353 wt] | 0.432
60 | MESGNASGGDDDWTHL [SQSTM1 326-341 mut Q13501.D329G] | 0.197

These binders were tested against FKBP1A_full-length__P62942_1_108, P62942 in the same assay as above. Settings: replicate selections in which the peptide was seen: 5.

Row | Binder | mean normalised NGS count
61 | LGPTFTNTGAATLVIG [HNF1A 422-437 mut P20823.S432C] | 1.54
62 | WLPPLRDGGAKIDGYI [TTN 19746-19761 wt] | 3.51

Each binder was assayed against GABARAPL2_ATG8__P60520_2_115 in the same assay as above. Settings: replicate selections in which the peptide was seen: 5.

Row | Binder | mean normalised NGS count
63 | EFTFVDETDQQAVPDV [KIAA1109 1863-1878 wt] | 0.00869

Each binder was assayed against FKBP1A_full-length__P62942_1_108, P62942 in the same assay as above. Settings: replicate selections in which the peptide was seen: 4.

Row | Binder | mean normalised NGS count
64 | PPGNWSPRPPAAGEAR [SQSTM1 202-217 mut Q13501.R212C] | 0.516
